Series [1] relates to human colon cancer cell line SW620 (negative control cells). The series is described as follows: In vitro cytotoxicity assay of ADCs (MTS). It counts as cell-based. The following applies: 120h. An excerpt:
DMEM medium and RMPI1640 medium were purchased from Source Biotechnology, and fetal bovine serum was purchased from ExCellBio. Human skin squamous cell carcinoma cell line A431 (Trop2 positive expression cells), human primary pancreatic adenocarcinoma BxPC-3 (Trop2 positive expression cells), human gastric cancer cell line NCI-N87 (Trop2 positive expression cells) and human colon cancer cell line SW620 (negative control cells) were purchased from ATCC (American type culture collection) and cultured using the method recommended in the literature. […] Cell Titer 96® AQueous One Solution Cell Proliferation Assay was purchased from Promega.
Human skin squamous cell carcinoma cell line A431, human primary pancreatic adenocarcinoma BxPC-3, human gastric cancer cell line NCI-N87 and human colon cancer cell line SW620 in the logarithmic growth phase were selected. A certain number of tumor cell lines were inoculated in a 96-well plate, then the cells were treated with gradient dilutions of the test antibody and the corresponding ADCs for 5 days. Finally, the cell viability was detected by MTS, and the inhibitory effect of the test antibody and ADCs on the tumor cell line was evaluated by calculating IC50. The initial concentration of the ADCs was 500 nM, the dilution multiple was 7 times, a total of 8 concentration points, and the treatment lasted for 5 days. The cell survival rate was calculated as follows: ((OD value of the experimental group - OD value of the blank group)/(OD value of the control group - OD value of the blank group)) × 100%, and then the half-maximal inhibitory concentration (IC50) was calculated using GraphPad Prism. Table 7 In vitro cytotoxicity of ADCs (120h)

Series [2] can be described thus: SEC detection of ADC monomer rate (SEC-HPLC). It counts as physicochemical. The procedure:
Prepare SEC mobile phase 50mM PB+300mM NaCl+200mM Arg, IPA=95:5, adjust pH=6.5 (the meanings of the abbreviations are as follows: PB: phosphate buffer solution, Arg: arginine, IPA: isopropanol). Dilute the sample to a concentration between 1~2mg/ml and then centrifuge the sample at 14000rpm for 5 minutes or filter it with a 0.22µm filter to remove large particles in the sample. Place the sample bottle on the sample plate and set the position, injection volume, number of injection needles and injection method for each sample according to the "UPLC Standard Operating Procedure". The column model is: XBridge BEH SEC, 200Å, 1.7µm, 4.6*150mm, Waters.
Set the detection wavelength to 214nm and 280nm, and edit the running method as follows: […]
A general note: SEC sorts molecules by how far they enter the pores of the column.

The nature of series [3]: Body weight of mice in the A431 tumor-bearing mouse model (initial toxicity). The note with it: for Average Body Weight of Mice (g) D0 / Average Body Weight of Mice (g) D3 / Average Body Weight of Mice (g) D7 / Average Body Weight of Mice (g) D10 / Average Body Weight of Mice (g) D14 / Average Body Weight of Mice (g) D17 / Average Body Weight of Mice (g) D21 / Average Body Weight of Mice (g) D24 / Average Body Weight of Mice (g) D28: 2 mg/kg tail vein injection on days 0, 7, 14, 21; for toxicity judged by changes in body weight: 2 mg/kg, result in words.

The subject of series [4] is A431 tumor-bearing mouse model. As to the kind of experiment: In vivo antitumor activity, A431 tumor-bearing mouse model. More on the design: species or system BALB/c nude mice. The following applies: 2 mg/kg tail vein injection on days 0, 7, 14, 21.

A word on the IC50: it is the midpoint of a concentration-inhibition curve. Read a high IC50 as lower potency.

B1: ADC-1-2a (conjugate)
heavy: QVQLVQSGAEVKKPGASVKLSCKASGYTFTSFDINWVRQAPEQRLEWMGWIFPGDGNTKYSQKFQGRATITRDTSASTAYMELSSLRSEDTAVYYCVRGEALYYFDYWGQGTLVTVSS[omitted - human IgG1 constant region]
light: DIQMTQSPSSLSASVGDRVTITCRASQDINKYLAWYQQKPGKVPKLLIYSTSTLQSGVPSRFSGSGSGTDFTLTISSLQPEDVATYYCLQYDDLFTFGQGTKLEIKRTVAAPSVFIFPPSDEQLKSGTASVVCLLNNFYPREAKVQWKVDNALQSGNSQESVTEQDSKDSTYSLSSTLTLSKADYEKHKVYACEVTHQGLSSPVCTKSFNRGEC
In series [1], B1 yielded an IC50 of 296 nM. Further, in series [2], the “Aggregation Rate (100%)” value worked out at 1.61%. Besides, in series [3], the “Average Body Weight of Mice (g) D0” value is 21.98 g, the “Average Body Weight of Mice (g) D3” value is 22.00 g, the “Average Body Weight of Mice (g) D7” value was found to be 22.10 g and the “Average Body Weight of Mice (g) D10” value was determined as 22.87 g. In series [3], the “Average Body Weight of Mice (g) D14” value came out at 23.61 g, the “Average Body Weight of Mice (g) D17” value is reported as 23.55 g, the “Average Body Weight of Mice (g) D21” value turned out to be 23.91 g and the “Average Body Weight of Mice (g) D24” value was found to be 24.03 g. In series [3], the “Average Body Weight of Mice (g) D28” value is on record as 24.03 g and the “toxicity judged by changes in body weight” value (from here on “toxicity judged by changes”) is recorded as “no obvious toxicity”. In series [4], the “Mean Tumor Volume (mm^3) D0” value came out at 183.78 mm^3, the “Mean Tumor Volume (mm^3) D3” value turned out to be 286.15 mm^3, the “Mean Tumor Volume (mm^3) D7” value amounted to 390.57 mm^3 and the “Mean Tumor Volume (mm^3) D10” value is given as 471.77 mm^3. Besides, in series [4], the “Mean Tumor Volume (mm^3) D14” value was determined as 516.78 mm^3, the “Mean Tumor Volume (mm^3) D17” value came to 589.15 mm^3, the “Mean Tumor Volume (mm^3) D21” value came to 595.04 mm^3 and the “Mean Tumor Volume (mm^3) D24” value was 599.58 mm^3. Also, in series [4], the “Mean Tumor Volume (mm^3) D28” value is reported as 779.54 mm^3.

B2: ADC-2-2a (conjugate)
heavy: QVQLVQSGAEVKKPGASVKLSCKASGYTFTSFDINWVRQAPEQRLEWMGWIFPGDGNTKYSQKFQGRATITRDTSASTAYMELSSLRSEDTAVYYCVRGEALYYFDYWGQGTLVTVSS[omitted - human IgG1 constant region]
light: DIQMTQSPSSLSASVGDRVTITCRASQDINKYLAWYQQKPGKVPKLLIYSTSTLQSGVPSRFSGSGSGTDFTLTISSLQPEDVATYYCLQYDDLFTFGQGTKLEIKRTVAAPSVFIFPPSDEQLKSGTASVVCLLNNFYPREAKVQWKVDNALQSGNSQESVTEQDSKDSTYSLSSTLTLSKADYEKHKVYACEVTHQGLSSPVCTKSFNRGEC
B2 had an IC50 in series [1] of 314 nM. In series [2], the “Aggregation Rate (100%)” value was 2.02% and the “Degradation Rate (100%)” value is 0.33%. Moreover, in series [3], the “Average Body Weight of Mice (g) D0” value was 21.29 g, the “Average Body Weight of Mice (g) D3” value is recorded as 21.63 g, the “Average Body Weight of Mice (g) D7” value is listed as 22.23 g and the “Average Body Weight of Mice (g) D10” value amounted to 22.57 g. In series [3], the “Average Body Weight of Mice (g) D14” value is 23.34 g, the “Average Body Weight of Mice (g) D17” value turned out to be 23.97 g, the “Average Body Weight of Mice (g) D21” value was 23.94 g and the “Average Body Weight of Mice (g) D24” value was found to be 24.48 g. In addition, in series [3], the “Average Body Weight of Mice (g) D28” value came to 24.50 g and the “toxicity judged by changes” value is “no obvious toxicity”. In addition, in series [4], the “Mean Tumor Volume (mm^3) D0” value stood at 182.57 mm^3, the “Mean Tumor Volume (mm^3) D3” value was found to be 391.54 mm^3, the “Mean Tumor Volume (mm^3) D7” value was determined as 596.61 mm^3 and the “Mean Tumor Volume (mm^3) D10” value was determined as 716.69 mm^3. Besides, in series [4], the “Mean Tumor Volume (mm^3) D14” value came out at 775.49 mm^3, the “Mean Tumor Volume (mm^3) D17” value is 811.97 mm^3, the “Mean Tumor Volume (mm^3) D21” value was 951.41 mm^3 and the “Mean Tumor Volume (mm^3) D24” value is 929.08 mm^3. In series [4], the “Mean Tumor Volume (mm^3) D28” value was 1262.70 mm^3.

B3: ADC-C-2a: prepared by combining compound VcMMAE with anti-Trop2 antibody TR005 (conjugate)
heavy: QVQLVQSGAEVKKPGASVKLSCKASGYTFTSFDINWVRQAPEQRLEWMGWIFPGDGNTKYSQKFQGRATITRDTSASTAYMELSSLRSEDTAVYYCVRGEALYYFDYWGQGTLVTVSS[omitted - human IgG1 constant region]
light: DIQMTQSPSSLSASVGDRVTITCRASQDINKYLAWYQQKPGKVPKLLIYSTSTLQSGVPSRFSGSGSGTDFTLTISSLQPEDVATYYCLQYDDLFTFGQGTKLEIKRTVAAPSVFIFPPSDEQLKSGTASVVCLLNNFYPREAKVQWKVDNALQSGNSQESVTEQDSKDSTYSLSSTLTLSKADYEKHKVYACEVTHQGLSSPVCTKSFNRGEC
With B3, the IC50 in series [1] was 598 nM. Moreover, in series [3], the “Average Body Weight of Mice (g) D0” value is reported as 21.72 g, the “Average Body Weight of Mice (g) D3” value was determined as 22.02 g, the “Average Body Weight of Mice (g) D7” value came out at 22.25 g and the “Average Body Weight of Mice (g) D10” value is listed as 23.13 g. Moreover, in series [3], the “Average Body Weight of Mice (g) D14” value stood at 23.69 g, the “Average Body Weight of Mice (g) D17” value is 24.29 g, the “Average Body Weight of Mice (g) D21” value amounted to 24.56 g and the “Average Body Weight of Mice (g) D24” value worked out at 25.34 g. Besides, in series [3], the “Average Body Weight of Mice (g) D28” value was 25.61 g and the “toxicity judged by changes” value is listed as “no obvious toxicity”. In series [4], the “Mean Tumor Volume (mm^3) D0” value turned out to be 182.16 mm^3, the “Mean Tumor Volume (mm^3) D3” value is 336.26 mm^3, the “Mean Tumor Volume (mm^3) D7” value was 570.83 mm^3 and the “Mean Tumor Volume (mm^3) D10” value is on record as 632.82 mm^3. Also, in series [4], the “Mean Tumor Volume (mm^3) D14” value was determined as 911.55 mm^3, the “Mean Tumor Volume (mm^3) D17” value is 1007.99 mm^3, the “Mean Tumor Volume (mm^3) D21” value turned out to be 1287.42 mm^3 and the “Mean Tumor Volume (mm^3) D24” value is listed as 1399.82 mm^3. Moreover, the “Mean Tumor Volume (mm^3) D28” value in series [4] is given as 1915.84 mm^3.
